Measured values published in article PMC10293653 (International Journal of Biological Macromolecules, 2023).

System: Wt-SARS-CoV-2
Type: cell-based

N[C@@H](CC(=O)N1CCn2c(nnc2C(F)(F)F)C1)Cc1cc(F)c(F)cc1F [Sitagliptin, sitagliptin]
effect on viral growth (0.99 μM): partially encumbered the viral growth
inhibition of viral multiplication compared to cells with virus alone (1.98 μM): almost six folds
